According to PubChem BioAssay AID1508642 (National Center for Advancing Translational Sciences (NCATS), 2021):
Among all 43,000 compounds or so, about 200 (0.47%) were called active. Inconclusive results (about 12%) are left out. Calls come from the whole dose curve; as a rule, active = well fitted cell-killing curve with a large enough effect; inconclusive = small, poorly fitted or top-dose-only effect, or effect the other way; inactive = flat fitted curve, though single readings scatter. Some of the results follow.

assay: Cell viability qHTS assay in S16 Pmp22-F2sN cells; details: S16 Pmp22-F2sN Schwann cells (luciferase reporters placed in the Pmp22 gene) viability, CellTiter-Glo, 24 h; series mostly up to 57.5 µM; activity change, negative = cytotoxicity: at the top concentration; note: nearly all actives have a fitted effect of over 65% in size
Method in brief: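 S16 Schwann cells carrying the Pmp22-F2sN reporter, seeded in 1536-well format, were exposed to library compounds for 24 h at 37C. Viability was read as CellTiter-Glo luminescence after 15 min at room temperature.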
% is set by controls: 0 for no effect and ±100 for the full control effect.

| Structure (SMILES) | activity change, negative = cytotoxicity |
| --- | --- |
| Cc1nc2ccn(Cc3cccnc3)c(=O)c2cc1C(=O)Nc1ccc(OC(F)(F)F)cc1 | inactive: -15% |
| COCCn1c(SCC(=O)Nc2ccc(F)c(Cl)c2)nc2c(oc3ccccc32)c1=O | inactive: -24.5% |
| COc1ccc(C(=O)NCCc2sc(-c3cccc(F)c3)nc2C)cc1 | inactive: -3.63% |
| Cc1cccc(CCn2c(=O)c3ccccc3n(Cc3cccc(F)c3)c2=O)c1 | inactive: 28.8% |
| CC1CCc2nc(NC(=O)COc3ccc(C(C)(C)C)cc3)sc2C1 (stereo not given) | inactive: -3.12% |
| CC(=O)c1cccc(NC(=O)CCS(=O)(=O)c2cc(Br)cc3c2N(C(=O)C2CC2)CC3)c1 | inactive: 0.833% |
| CCCC(=O)N1CC(=O)Nc2ccc(Cl)cc2C1c1ccc(F)cc1 (stereo not given) | inactive: -4.9% |
| CC(=O)N1CCCc2cc(S(=O)(=O)N3CCC(C(=O)NCCC(C)C)CC3)ccc21 | inactive: 10.6% |
| O=C(NC1CC(=O)N(c2ccc(F)cc2)C1)c1cc2ccccc2o1 (stereo not given) | inactive: -7.5% |
| Cc1nc2c(C(=O)NCc3ccccc3Cl)cnn2c(C)c1Cc1c(F)cccc1Cl | inactive: -6.66% |
| CCOC(=O)c1nnc2c(-c3ccc(OC)cc3)c(C)nn2c1N | inactive: 21.9% |
| CN1CCN(C(c2ccccc2)c2sc3nc(-c4ccco4)nn3c2O)CC1 (stereo not given) | inactive: -2.18% |
| CC(=O)c1sc2c(c1C)c(=O)n(-c1ccc(Cl)cc1)c(=O)n2Cc1ccc(Cl)cc1 | inactive: -17.8% |
| Cc1cc(C)c(Cn2c(C)c(CNCCCc3ccccc3)c(C(=O)O)c2C)c(C)c1 | inactive: -9.95% |
| CCOC(=O)c1c(NC(=O)c2noc3c2CC(C(C)(C)C)CC3)sc2c1CCCC2 (stereo not given) | inactive: -0.655% |
| Cc1ccc(C)c(N2CCN(C(=O)CN3C(=O)COc4ccc(S(=O)(=O)N5CCCCCC5)cc43)CC2)c1 | inactive: 6.68% |
| CCOC(=O)c1ccc(NC(=O)C2Cc3ccccc3CN2S(=O)(=O)c2ccc(Cl)cc2)cc1 (stereo not given) | inactive: -3.36% |
| O=C(NCC(c1cccs1)S(=O)(=O)c1cccs1)c1ccccc1 (stereo not given) | inactive: -7.31% |
| Cc1cc(Br)ccc1NC(=O)CCS(=O)(=O)c1cccc2nonc12 | inactive: 13% |
| CCOC(=O)N1CCN(S(=O)(=O)N2CCCC(C(=O)NCc3cccc(OC)c3)C2)CC1 (stereo not given) | inactive: -2.2% |
| CCC1CN(C(=O)N2CCC(C(=O)NCc3ccc(C)o3)CC2)c2cc(C)ccc2O1 (stereo not given) | inactive: 3.77% |
| CCOC(=O)c1cc2c(=O)n3ccccc3nc2n(CC2CCCO2)c1=NC(=O)c1cccc(C(F)(F)F)c1 (stereo not given) | inactive: 1.26% |
| CC(=O)N1CCC(N(Cc2ccco2)C(=O)Nc2cccc(C)c2)CC1 | inactive: -9.61% |
| Cc1cccc(NC(=O)c2cnn(-c3ccccc3)c2-n2cccc2)c1C | inactive: -19.1% |

| Structure (SMILES) | activity change, negative = cytotoxicity |
| --- | --- |
| COc1cccc(CNC(=O)c2cc3cccc4c3n2CC(C)S4)c1OC (stereo not given) | inactive: -9.22% |
| C#CCn1c(COc2ccccc2C)nc2ccccc21 | inactive: 0.146% |
| Cc1cccc(N(C)C(=O)CN2C(=O)COc3ccc(S(=O)(=O)N4CCCCCC4)cc32)c1 | inactive: 1.71% |
| Cn1c(CNC(=O)CSc2n[nH]c(-c3ccccc3Cl)n2)nc2ccccc21 | inactive: 4.42% |
| COc1cc(OC)c(OC)cc1CNCCSc1nnnn1-c1ccccc1 | inactive: 3.68% |
| COc1cc2c(=O)c(S(=O)(=O)c3ccc(F)cc3)cn(Cc3ccccc3C)c2cc1OC | inactive: 16.9% |
| Cc1ccc(-c2noc(-c3ccc(N4CCC(C)CC4)c([N+](=O)[O-])c3)n2)cc1 | inactive: 3.97% |
| CCOc1cccc2cc(-c3cn4c(n3)sc3cc(C)ccc34)c(=O)oc12 | inactive: 1.91% |
| COc1ccc(OCc2nc3ccccc3n2C(C)c2ccccc2)cc1 (stereo not given) | inactive: -0.296% |
| Cc1ccnc(NS(=O)(=O)c2ccc(NC(=O)C(C)(C)Oc3ccc(Cl)cc3)cc2)n1 | inactive: -18.5% |
| CCOc1ccccc1NC(=O)CSc1nc2c(c(=O)[nH]1)CCC2 | inactive: -0.79% |
| O=C(Nc1ccc(Cl)cc1F)c1oc(=O)c2ccccc2c1-c1ccccc1 | inactive: 10.3% |
| O=C(Cc1ccccc1)N(Cc1cccnc1)c1nc2c(F)cccc2s1 | inactive: -22% |
| O=C(NCc1ccc(Cl)cc1)c1ccc(CSCc2cccc(Cl)c2)o1 | inactive: -26.2% |
| Cc1ccccc1OC(=O)c1snnc1C | inactive: 1.84% |
| CCOc1cc(C2Nc3ccccc3-c3nnc(SCc4ccccc4)nc3O2)ccc1OC (stereo not given) | inactive: -12.9% |
| Cc1cc(Br)ccc1NC(=O)C(Cc1ccccc1)NS(=O)(=O)c1ccc(Br)s1 (stereo not given) | inactive: 16% |
| CCC(C(=O)Nc1ccc(C(=O)OC)cc1)n1nc(-c2ccc(C)cc2)c2c(c1=O)CCCC2 (stereo not given) | inactive: -19.5% |
| Nc1nc(Nc2cccc(C(F)(F)F)c2)sc1C(=O)c1ccccc1 | inactive: 9.77% |
| Cc1cc(C)c2c(CC(=O)Nc3ccc(S(=O)(=O)N4CCCC(C)C4)cc3)coc2c1 (stereo not given) | inactive: -16.5% |
| Cc1ccc(OCC(=O)Nc2cccc(OCc3cc(=O)n4ccccc4n3)c2)cc1C | inactive: -1.25% |
| O=C(Nc1ccc(Br)cc1)C1CCCN(S(=O)(=O)c2ccc(Br)s2)C1 (stereo not given) | inactive: 8.9% |
| CCc1ccccc1NC(=O)C(CC)Sc1ncnc2c1sc1ccccc12 (stereo not given) | inactive: 5.94% |
| O=C(CCCCCn1c(=O)[nH]c2ccccc2c1=O)NCc1cccc(Cl)c1 | inactive: 0.665% |

| Structure (SMILES) | activity change, negative = cytotoxicity |
| --- | --- |
| Cn1c(=O)c2c(SCC(=O)N3CCc4ccccc43)nc(-c3cccc(F)c3)nc2n(C)c1=O | inactive: 0.992% |
| CCOc1ccccc1CNC(=O)C1CCN(S(=O)(=O)c2cccc3nonc23)CC1 | inactive: 8% |
| O=c1[nH]c2ccc(NCc3ccc(-c4cccc(Cl)c4)o3)cc2[nH]1 | inactive: -22.3% |
| CCOc1ccc(S(=O)(=O)N2CCN(c3cc(Cl)ccc3Cl)CC2)c2ccccc12 | inactive: 9.06% |
| CCN(c1ccccc1)S(=O)(=O)c1cc(-c2onc(C)c2C)ccc1OC | inactive: -26.3% |
| Cc1ccc(C)c(Cn2c(C(C)NC(=O)c3ccc(F)cc3)nc3ccccc32)c1 (stereo not given) | inactive: -2.13% |
| Cc1c2cnn(CC(=O)N3CCN(c4ccccc4)CC3)c(=O)c2c(C)n1Cc1ccc(F)cc1 | inactive: -20% |
| CCOc1ccccc1NC(=O)CCS(=O)(=O)c1cccc2nsnc12 | inactive: -5.04% |
| Cc1ccc(Nc2ncnc3c2cnn3-c2ccccc2)c(C)c1 | inactive: 11.9% |
| Cc1cccc(-c2noc(CCCC(=O)NCc3ccco3)n2)c1 | inactive: 0.677% |
| COCCn1c(CCC(=O)Nc2cc(C)ccc2C)nc2cccnc21 | inactive: -5.34% |
| CCn1c(=O)c2sccc2n2c(CCCC(=O)N3CCN(c4ccc(OC)cc4)CC3)nnc12 | inactive: 17.4% |
| CCc1cccc(NC(=O)c2nnn(Cc3ccc(SC)cc3)c2N)c1 | inactive: 4.72% |
| CCOCCCNC(=O)C(c1ccccc1)N(Cc1cccs1)C(=O)c1ccc(NC(C)=O)cc1 (stereo not given) | inactive: -13.9% |
| COc1ccc(N2CCN(C(=O)c3c(C)oc4ncnc(N5CCCCC5)c34)CC2)cc1 | inactive: 22.3% |
| Cc1cccc(N2CCN(C(=O)C3CCCN(S(=O)(=O)c4cccc5nsnc45)C3)CC2)c1C (stereo not given) | inactive: 19.8% |
| O=C1CC(c2ccccc2)Cc2[nH]c(=O)c(C(=O)Nc3ccc(OC(F)(F)F)cc3)cc21 (stereo not given) | inactive: 15.1% |
| O=C(CN1C(=O)CCSc2ccc(S(=O)(=O)N3CCCC3)cc21)Nc1ccccc1 | inactive: -11.3% |
| CCC(C(=O)Nc1ccccc1C(=O)OC)n1c(C)c2cnn(-c3ccccc3)c(=O)c2c1C (stereo not given) | inactive: -2.53% |
| CCC(Oc1ccccc1)C(=O)Nc1ccc(O)c(-c2nc3cc(C)ccc3o2)c1 (stereo not given) | inactive: -18.4% |
| Cn1c(CN2CCCCC2)nc2cc(NC(=O)c3cccc(Br)c3)ccc21 | inactive: -14.1% |
| NC(=O)CSc1oc(-c2ccco2)nc1S(=O)(=O)c1ccc(Br)cc1 | inactive: -15% |
| CCCCn1cc(S(=O)(=O)c2ccc(C)c(C)c2)c(=O)c2cc(F)c(N3CCN(C)CC3)cc21 | inactive: -0.941% |
| COc1cccc(NC(=O)CCS(=O)(=O)c2ccc3c(c2)oc(=O)n3C)c1 | inactive: 1.73% |

| Structure (SMILES) | activity change, negative = cytotoxicity |
| --- | --- |
| COc1ccc(NC(=O)Cn2c(=O)n(CCCC(=O)NCc3ccccc3OC)c(=O)c3ccccc32)cc1Cl | inactive: 20.7% |
| O=C(Cn1cc(S(=O)(=O)Cc2ccccc2Cl)c2ccccc21)NCc1ccccc1Cl | inactive: -17.2% |
| Cn1c(=O)oc2cc(S(=O)(=O)N3CCC(C(=O)NCc4ccccc4Cl)CC3)ccc21 | inactive: 8.64% |
| O=C1CN(C(=O)Cc2ccc(F)cc2)C(c2ccccc2)c2cc(Br)ccc2N1 (stereo not given) | inactive: -4.52% |
| O=C1c2oc3ccccc3c(=O)c2C(c2ccc(Br)cc2)N1c1ccccn1 (stereo not given) | inactive: 2.92% |
| COC(=O)c1cnn(-c2ccc(C(=O)Nc3cccc(C(C)=O)c3)cc2)c1N | inactive: 1.28% |
| CCOc1ccc(NC(=O)CC2C(=O)N(c3ccccc3)C(=O)N2CCc2ccc(OC)cc2)cc1 (stereo not given) | inactive: 5.84% |
| Cc1cccc(OCc2cc(=O)n3c(-c4ccccc4)csc3n2)c1C | inactive: -1.91% |
| CCCn1c(SCc2nc(-c3ccccc3C)no2)nnc1-c1ccc(Cl)cc1 | inactive: -22.9% |
| CCOC(=O)c1[nH]c(C)c(CCC(=O)Nc2c(C)cc(C)cc2C)c1C | inactive: -9.37% |
| Cc1cccc(N2CCN(C(=O)C3CCC(CNS(=O)(=O)c4ccc(Br)s4)CC3)CC2)c1C (stereo not given) | inactive: 2.45% |
| CCc1nn(CC(=O)N2CCN(c3cccc(C)c3C)CC2)c(=O)c2cc3occc3n12 | inactive: -8.82% |
| COc1ccc(N2C(=O)CSC23C(=O)N(CC(=O)NC2CCCCC2)c2ccccc23)cc1 (stereo not given) | inactive: -1.96% |
| CC(=O)c1ccc(N2CCN(S(=O)(=O)c3c(C)nc4sc(C)cn4c3=O)CC2)cc1 | inactive: 5.76% |
| Cc1nc2ccccc2n1CCc1nc2c3ccccc3nc(SCc3cccc(F)c3)n2n1 | inactive: 10.7% |
| CC1=C(C(=O)Nc2ccccc2)C(c2ccccc2C)n2ncc(C(=O)Nc3ccccc3)c2N1 (stereo not given) | inactive: -20.3% |
| CCOc1ccccc1NC(=O)Cn1c(=O)n(CCC(C)C)c(=O)c2cccnc21 | inactive: 11.8% |
| O=C(COC(=O)c1cc(-c2cccs2)nc2ccccc12)c1ccc(Br)cc1 | inactive: 23% |
| COc1ccc(CCNC(=O)CCn2c(=O)c3ccccc3n(CC(=O)Nc3ccccc3F)c2=O)cc1OC | inactive: 3.02% |
| Cn1c(=O)c2sccc2n2c(CCC(=O)NCc3ccc(F)cc3)nnc12 | inactive: 2.26% |
| Cc1ccc2c(=O)c(C(=O)c3ccccc3)cn(CC(=O)Nc3ccc4c(c3)OCCO4)c2n1 | inactive: 8.92% |
| Cc1c(C(=O)N2CCC(c3nc4ccccc4s3)CC2)oc2cc(Br)ccc12 | inactive: 1.41% |
| COc1cc(C2c3c(oc4cc(C)c(C)cc4c3=O)C(=O)N2CCCN2CCOCC2)ccc1O (stereo not given) | inactive: 13.3% |
